# The BET-seq Pho4 binding data (Le et al. 2018)
# The list shows a part of the results. These are noisy estimates, calculated here from bound and input reads.
# Target: T1, Pho4 (S. cerevisiae) (UniProt P07270)
# T1 sequence: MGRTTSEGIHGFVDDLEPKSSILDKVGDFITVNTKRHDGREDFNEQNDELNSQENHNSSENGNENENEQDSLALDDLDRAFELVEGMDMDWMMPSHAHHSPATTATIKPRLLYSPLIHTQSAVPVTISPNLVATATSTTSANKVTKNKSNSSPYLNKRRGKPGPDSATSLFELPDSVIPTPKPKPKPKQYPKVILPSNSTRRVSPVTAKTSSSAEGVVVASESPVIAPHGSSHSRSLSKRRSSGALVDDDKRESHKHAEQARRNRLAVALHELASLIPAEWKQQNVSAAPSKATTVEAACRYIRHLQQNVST
# Test: relative binding free energy (BET-seq); higher = weaker binding
# Conditions: reference: library average
row,Sequence,relative binding free energy [kcal/mol]
1,ATTGGCACGTGAGATG,0.05
2,TAGCCCACGTGGTTGT,-0.05
3,TAGGTCACGTGTTGGA,0.21
4,AGTTGCACGTGTGCTA,0.05
5,AATTACACGTGTCTGG,0.08
6,TTGCTCACGTGGCGAT,0.18
7,CATGACACGTGTGGGC,0.08
8,AAGAACACGTGAGGTT,0.36
9,GCGGACACGTGAGTGT,0.3
10,ACTTTCACGTGTATGT,0.18
11,TGGGGCACGTGCGCAG,-0.17
12,TATGGCACGTGAGGTG,0.06
13,AGGTACACGTGTTAAT,0.02
14,GGTCGCACGTGGTGTG,-0.03
15,TGTAGCACGTGTTTGG,-0.09
16,GGCTTCACGTGCGTGT,0.24
17,TATGTCACGTGAATGG,0.3
18,AGAATCACGTGAGGTT,0.31
19,GGTGACACGTGGTATG,-0.03
20,AAGTGCACGTGCGTAT,-0.06
21,TCTTCCACGTGGTTGG,0.03
22,TCGGTCACGTGATAGT,0.14
23,GGATTCACGTGGGCGT,0.1
24,ATTATCACGTGTGGGT,0.18
25,TAGGGCACGTGGAGAA,-0.18
26,TTCAGCACGTGGTTGT,-0.05

row,Sequence,relative binding free energy [kcal/mol]
1,TTTTGCACGTGGGTTA,-0.06
2,ATGCTCACGTGGAAGG,0.24
3,TTGGGCACGTGGGTCT,-0.26
4,TGCGACACGTGGGAGT,-0.08
5,TAATTCACGTGTCTTG,0.32
6,TGGCGCACGTGAGCGT,0.02
7,TGTTACACGTGATAGT,0.11
8,GTGTACACGTGTATAA,-0.05
9,GTCGGCACGTGTAGGA,0.02
10,ATCGACACGTGGTTGT,0.05
11,AACTGCACGTGGTGTG,-0.11
12,TGTGGCACGTGCTGCA,-0.23
13,GCTGGCACGTGTATTG,-0.03
14,ATAGTCACGTGAATGG,0.31
15,GTGCGCACGTGCTAGG,-0.1
16,TCGGTCACGTGTGTAG,0.19
17,TGCCGCACGTGATTGT,0.12
18,TATTACACGTGGTCGA,0.05
19,GGCTACACGTGGGAGT,0.01
20,AATGGCACGTGGGGTC,-0.14
21,TGTCTCACGTGTGAGA,0.02
22,CTTTTCACGTGCTGGT,0.44
23,TTAAGCACGTGTGTTC,-0.18
24,TGGCGCACGTGTTGCG,-0.06
25,TATCACACGTGATGTG,0.11
26,TCATGCACGTGTTGCG,0.02

row,Sequence,relative binding free energy [kcal/mol]
1,TTCGGCACGTGTGGGC,-0.07
2,CTGGGCACGTGGGTGT,-0.26
3,TTGGCCACGTGTGGGC,-0.05
4,TTACTCACGTGTTTTG,0.29
5,AGTAACACGTGGGGTT,-0.21
6,AGAGTCACGTGATGTT,0.25
7,CTGTGCACGTGATGTC,0.1
8,TGGTCCACGTGCTGTT,-0.06
9,GAGACCACGTGGGTTT,-0.02
10,GTCAGCACGTGTTGCG,0.03
11,TATAGCACGTGTGTCA,-0.1
12,AAGGACACGTGTTGGC,0.1
13,TTCATCACGTGGGTAT,0.17
14,AAGGGCACGTGCGTTA,-0.06
15,CTTCGCACGTGGATGT,-0.04
16,TCGGGCACGTGCGGTT,-0.3
17,AAGGTCACGTGCTTGT,0.12
18,CTGGGCACGTGGATGT,-0.13
19,AAATTCACGTGTCGGT,0.16
20,AAATTCACGTGATTGG,0.33
21,TGCGTCACGTGAGGCG,0.1
22,TTTTGCACGTGGCGCG,0
23,TAGTTCACGTGGGCGT,0.26
24,TGGGGCACGTGAGATG,0.13
25,GGGTTCACGTGATAGT,0.54
26,GTTAGCACGTGGAGGA,-0.05

row,Sequence,relative binding free energy [kcal/mol]
1,GAAGGCACGTGGTGGT,-0.04
2,CATCGCACGTGGGGGG,-0.3
3,TCAAGCACGTGGTGGA,-0.07
4,TGTATCACGTGAGCGC,0.51
5,CGGAACACGTGGGGCG,-0.06
6,TATCGCACGTGGATTT,0.05
7,GATGTCACGTGCAGGG,0.09
8,CGGCGCACGTGTAGGA,-0.01
9,ATTGTCACGTGGCGGC,0
10,AGGTTCACGTGGGCCT,0.19
11,GATTACACGTGGGGAG,0.15
12,AGCGGCACGTGACGGG,-0.02
13,AAGTGCACGTGCTTGT,-0.18
14,TTTCGCACGTGGCATG,-0.03
15,TATCTCACGTGGTGGA,0.24
16,GGTTACACGTGTATGA,0.1
17,GGCTTCACGTGCGTGG,0.14
18,GCCTGCACGTGGGGGT,-0.17
19,TGGTTCACGTGCCTGT,0.25
20,TGTTACACGTGCTCTT,0.17
21,TTTGTCACGTGACTTT,0.29
22,TGGGCCACGTGGTAGG,-0.16
23,GGAGGCACGTGTATTG,-0.1
24,TTCTGCACGTGTCGTA,0.08
25,GCGTACACGTGTAGGG,0.18
26,TTGATCACGTGTTGTA,0.05

row,Sequence,relative binding free energy [kcal/mol]
1,TGATACACGTGGGGAC,-0.08
2,CTGATCACGTGATGGA,0.31
3,AGTAGCACGTGTGCAG,-0.01
4,GGGTTCACGTGGCTGA,0.21
5,GGAGACACGTGTTATG,0
6,GTAGACACGTGTGATA,0.2
7,TTAAACACGTGTGTTA,-0.12
8,TGTAGCACGTGAGGAG,0.17
9,TTTGCCACGTGGTGTG,-0.24
10,GGTGACACGTGTGTTA,0.07
11,TAAATCACGTGATTTT,0.02
12,ATTTACACGTGGGTGC,0.03
13,TCAGGCACGTGCAGGG,-0.17
14,ATTGGCACGTGAAGTG,0
15,CGTATCACGTGCTGGT,0.1
16,TTTGTCACGTGAAAAG,0.2
17,AAAGTCACGTGTAGGA,0.07
18,CTGTTCACGTGTAGGT,0.18
19,ATCAGCACGTGGTGTA,-0.21
20,CGGAACACGTGTAGTG,0.09
21,GTTCACACGTGTTAGT,0.22
22,GGTAGCACGTGCCTGT,-0.08
23,GGACACACGTGGTTGG,-0.01
24,GAGTTCACGTGCGTGG,0.18
25,TGAGTCACGTGTCTGT,0.04
26,TTCTTCACGTGTGCTG,0.19

row,Sequence,relative binding free energy [kcal/mol]
1,CCGGTCACGTGTGTTT,0.12
2,GGGGCCACGTGGTGGC,-0.18
3,GTTGGCACGTGCTGTA,-0.18
4,GCTAGCACGTGGTATT,-0.1
5,TGAGTCACGTGCATGT,-0.03
6,GTTGTCACGTGGACGG,0.11
7,TGATGCACGTGAGGAG,0.21
8,TGGTTCACGTGGCATA,0.2
9,TGTTGCACGTGAAGAA,0.26
10,GTTGTCACGTGTAGAT,0.28
11,GGGCACACGTGTTGAG,0.27
12,TGGGACACGTGCTTTA,-0.05
13,TTCTTCACGTGTGGGT,0.26
14,GTGTACACGTGAGGTA,0.29
15,CGTGGCACGTGGAAGT,0.01
16,TGGGGCACGTGGTACC,-0.16
17,GTTTTCACGTGGTAGA,0.28
18,CTGTGCACGTGATGGG,0.08
19,ATTGGCACGTGGGAGG,-0.14
20,ATGTCCACGTGTAAGT,0.18
21,AAAATCACGTGGGCGG,0.06
22,AAGAGCACGTGCTTGG,-0.07
23,GAGATCACGTGGGTCT,0.24
24,TATGGCACGTGGGGCC,-0.19
25,GTAGGCACGTGATTGT,0.06
26,TAAGGCACGTGTTCGT,-0.1

row,Sequence,relative binding free energy [kcal/mol]
1,TTGATCACGTGGTCGT,0.11
2,GGCTGCACGTGGAGAG,0.03
3,TTCGACACGTGATGTT,0.15
4,AGCGGCACGTGGGATG,-0.21
5,GTCGGCACGTGAAAGG,0.19
6,CTAGTCACGTGCGGGG,0.06
7,AACTTCACGTGAGTTT,0.32
8,GCGTGCACGTGGGGTA,-0.24
9,AGGTTCACGTGGAGGA,0.27
10,TTTGACACGTGTGCTA,0
11,ATGTGCACGTGGTAGT,-0.1
12,CGGGTCACGTGATGGG,0.21
13,TGTGGCACGTGATATA,-0.02
14,TGTTGCACGTGTCTGA,0.05
15,ATTGACACGTGGTTCA,0.06
16,GTTGACACGTGGATGC,0.12
17,TTCGACACGTGTATGT,0.09
18,TATGGCACGTGGAGGG,-0.06
19,AAGGCCACGTGTTGTT,-0.14
20,AGTTGCACGTGTGTTG,-0.01
21,TATGGCACGTGTGAAG,-0.07
22,TGGATCACGTGGGCAT,0.03
23,TGGCTCACGTGGTTCT,0.23
24,ATGTTCACGTGACTAT,0.24
25,TTAGGCACGTGGCTTT,-0.14
26,ATAGTCACGTGTTATC,0.18

row,Sequence,relative binding free energy [kcal/mol]
1,GCGCGCACGTGGTTGG,-0.15
2,TGTCGCACGTGATTGC,0.08
3,GAGAGCACGTGGGTGA,-0.17
4,CATATCACGTGTAGGT,0.13
5,ATAAGCACGTGGTGTG,-0.25
6,GTCGTCACGTGGTTAT,0.06
7,TCCTTCACGTGTTGGA,0.36
8,AAGTTCACGTGCGTGA,0.03
9,TGGGGCACGTGAAGGT,0.15
10,TTCAGCACGTGGGACT,0.04
11,TTGCGCACGTGGGAAT,-0.26
12,TGGATCACGTGTTCAG,0.19
13,ATATACACGTGGCGGG,-0.12
14,AGCTTCACGTGCGTGT,0.07
15,AGTGGCACGTGGGTGC,-0.2
16,AGTGCCACGTGGAATG,-0.11
17,TAGTCCACGTGTTTTT,0.03
18,AAAGCCACGTGTTGGG,-0.15
19,AGGTTCACGTGTTCGG,0.31
20,AGTTACACGTGGCGTG,0.01
21,TTAACCACGTGTTTTG,-0.1
22,GTTTGCACGTGAGATT,0.21
23,GCCGACACGTGGTGGG,0.05
24,GTTCTCACGTGATTAG,0.3
25,GGTAGCACGTGTATCG,-0.09
26,AGAGTCACGTGGTTGT,0.11

row,Sequence,relative binding free energy [kcal/mol]
1,TGGGTCACGTGTAGTG,0.29
2,GCCGGCACGTGTGCGG,-0.11
3,AAGGTCACGTGATGTG,0.16
4,GGTAGCACGTGAGTGG,0.22
5,CCTGGCACGTGGGGTT,-0.23
6,TGTGGCACGTGGCTTC,0.07
7,AGGATCACGTGTTATT,0.05
8,GGTTTCACGTGCGTGG,0.3
9,CTGCTCACGTGGGGTT,0.04
10,GTGTTCACGTGTGCTA,0.33
11,AGGTGCACGTGAGGCG,0.16
12,AGTAGCACGTGCATTT,0
13,TGGTACACGTGAGTAG,0.36
14,ATAGTCACGTGTTTCG,0.15
15,TAATGCACGTGGAGCT,0.01
16,TTAAACACGTGTAAAT,0.24
17,TTGATCACGTGTAGAG,0.26
18,AAATACACGTGATGGG,0.14
19,TACTTCACGTGTGCGG,0.14
20,TTGGACACGTGGGAGT,-0.16
21,TTGGTCACGTGGTGAC,0.12
22,CGGGGCACGTGACTGT,0.07
